{"source": "PubChem BioAssay AID651711", "about": "(Broad Institute, 2012)", "note": "Screen size: about 350,000 compounds; about 180 (0.051%) were called active. This list was built around the results that the source calls inconclusive (neither active nor inactive); the mix of calls is not that of the screen.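 The calls were made as follows: active = mean replicate inhibition above about 25%, with every replicate also reaching it (limit read from the data, passing the limit was not always enough); inconclusive = only one of those two criteria met; inactive = neither criterion met.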"}
{"target": "Protein disulfide-isomerase A6 (Homo sapiens) (UniProt Q15084)", "sequence (Q15084 whole entry, looked up)": "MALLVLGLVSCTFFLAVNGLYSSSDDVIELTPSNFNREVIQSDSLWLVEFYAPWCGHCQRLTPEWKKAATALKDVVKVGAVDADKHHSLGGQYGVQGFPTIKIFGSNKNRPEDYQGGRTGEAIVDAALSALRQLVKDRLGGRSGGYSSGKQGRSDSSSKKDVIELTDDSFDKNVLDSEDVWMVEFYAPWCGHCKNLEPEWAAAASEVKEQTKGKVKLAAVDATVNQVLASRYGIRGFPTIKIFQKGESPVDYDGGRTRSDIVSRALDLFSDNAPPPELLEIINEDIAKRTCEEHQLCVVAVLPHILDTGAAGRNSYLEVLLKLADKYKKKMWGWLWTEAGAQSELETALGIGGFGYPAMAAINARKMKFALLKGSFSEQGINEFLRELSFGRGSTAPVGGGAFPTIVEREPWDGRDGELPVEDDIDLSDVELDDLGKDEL", "experiment": "inhibitors of ERp5-driven insulin aggregation, primary screen, biochemical, turbidity, absorbance 650 nm, single point (AID 651711)", "conditions": "90 min, at 9.99 µM, hits give high values"}
{"smiles": "CCCNC(=O)C[C@@H]1CC[C@H]2[C@@H](COC[C@H](O)CN2Cc2ccccc2F)O1", "inhibition": "inactive: 4.39%"}
{"smiles": "COC(=O)Nc1ccc(S(=O)(=O)N2CCC(C(=O)N3CCCC(C)C3)CC2)cc1", "note": "(stereo not given)", "inhibition": "inconclusive: 40.1%"}
{"smiles": "COC(=O)c1c(NC(=O)C2COc3ccccc3O2)sc2c1CCN(Cc1ccccc1)C2", "note": "(stereo not given)", "inhibition": "inconclusive: 40.6%"}
{"smiles": "COc1ccc(-n2cnc3ccccc32)cc1", "inhibition": "inconclusive: 40.3%"}
{"smiles": "CCCC(=O)N1CC2(C1)CN(C(=O)C1CCCCC1)[C@H](CO)c1[nH]c3cc(OC)ccc3c12", "inhibition": "active: 35.6%"}
{"smiles": "CCC1(CC)NC(=O)N(CC(=O)OC(C)C(=O)Nc2ccc(NC(C)=O)cc2)C1=O", "note": "(stereo not given)", "inhibition": "active: 28.2%"}
{"smiles": "CCN(C(=O)COC(=O)c1ccccc1OCc1ccc(Cl)cc1)C1CCS(=O)(=O)C1", "note": "(stereo not given)", "inhibition": "inactive: -3.91%"}
{"smiles": "CC(C)NC(=O)N1[C@@H](C#N)[C@H](c2ccc(C#CC3CC3)cc2)[C@@H]1CO", "inhibition": "inconclusive: 25.3%"}
{"smiles": "COc1cccc(/C=C/C2=CC(C)(C)NC(=S)N2)c1", "inhibition": "inconclusive: 43.5%"}
{"smiles": "CS(=O)(=O)N(CC(=O)N1CCCCC1)c1cccc(F)c1", "inhibition": "inconclusive: 43.1%"}
{"smiles": "COc1cc(C(=O)c2ccc3c(c2)OCO3)cc(OC)c1OC", "inhibition": "inconclusive: 47.6%"}
{"smiles": "O=C(Nc1ccccc1)N1CC(=O)N2[C@@H](CO)[C@H](c3ccc(C#CC4CCCC4)cc3)[C@@H]2C1", "inhibition": "inactive: 1.6%"}
{"smiles": "CC(C)C#Cc1ccc2c(c1)O[C@@H](CN(C)C(=O)C1CC1)[C@@H](C)CN([C@@H](C)CO)S2(=O)=O", "inhibition": "active: 61.1%"}
{"smiles": "COC(=O)[C@@]1(Cc2ccc(OC)cc2)[C@H]2c3cc(C(=O)N4CCCC4)n(Cc4ccc(OC(F)(F)F)cc4)c3C[C@H]2CN1C(=O)c1ccccc1", "inhibition": "inconclusive: 33.6%"}
{"smiles": "O=C(NNC(=S)NC(=O)c1cccc([N+](=O)[O-])c1)c1ccc(Br)cc1", "inhibition": "inactive: -3.43%"}
{"smiles": "C[C@H](CO)N1C[C@H](C)[C@@H](CN(C)C(=O)C2CCOCC2)Oc2cc(-c3ccc(C(=O)N(C)C)cc3)ccc2S1(=O)=O", "inhibition": "inconclusive: 40.4%"}
{"smiles": "CCSC1=C(C#N)C2(CCCCC2)C2=C(CC(C)(C)CC2=O)N1", "inhibition": "inconclusive: 42.8%"}
{"smiles": "c1ccc2c(c1)N1CCCN=C1N2CCN1CCCCC1", "inhibition": "inactive: 2.04%"}
{"smiles": "CC(=O)Nc1ccc(CN2CCCC(CO)(Cc3ccccc3C)C2)cc1", "note": "(stereo not given)", "inhibition": "inconclusive: 26.8%"}
{"smiles": "Cn1cncc1C#Cc1ccc2cc(CCCO)oc(=O)c2c1", "inhibition": "inconclusive: 41.3%"}
{"smiles": "OCC1CCN(Cc2cn(Cc3ccccc3)nc2-c2cc3ccccc3o2)CC1", "inhibition": "inconclusive: 40.9%"}
{"smiles": "Cc1ccc(SCc2cc(=O)[nH]c(Nc3nc(C)c4ccc(C)cc4n3)n2)cc1", "inhibition": "inconclusive: 33.1%"}
{"smiles": "C[C@H]1CN([C@@H](C)CO)C(=O)c2cccc(NC(=O)c3nc4ccccc4s3)c2O[C@H]1CN(C)CC1CC1", "inhibition": "inactive: 2.5%"}
{"smiles": "O=C(c1cccnc1)c1ncc(C(F)(F)F)cc1Cl", "inhibition": "inconclusive: 30.8%"}
{"smiles": "CCS(=O)(=O)N[C@H]1C=C[C@@H](CC(=O)NC2Cc3ccccc3C2)O[C@@H]1CO", "inhibition": "inactive: -4.71%"}
{"smiles": "C[C@H]1CN([C@@H](C)CO)C(=O)c2cccc(NC(=O)Nc3ccc(F)cc3)c2O[C@H]1CN(C)C(=O)Nc1ccc(C(F)(F)F)cc1", "inhibition": "inactive: 9.86%"}
{"smiles": "CCOc1ccc(S(=O)(=O)NCCSCc2ccco2)cc1", "inhibition": "inconclusive: 42.8%"}
{"smiles": "C[C@@H]1CN([C@H](C)CO)C(=O)Cc2cc(NC(=O)Nc3cccc4ccccc34)ccc2O[C@@H]1CN(C)Cc1ccc(C(F)(F)F)cc1", "inhibition": "active: 60%"}
{"smiles": "Cc1ccc([N+](=O)[O-])cc1S(=O)(=O)N(C(=O)c1ccncc1)c1ccc2oc3c(c2c1)CCCC3", "inhibition": "inconclusive: 32.6%"}
{"smiles": "COc1ccc2c(CC(=O)NNC(=O)c3ccc(O)cc3)coc2c1", "inhibition": "inactive: 2.31%"}
{"smiles": "O=C(Nc1nc(-c2cccnc2)cs1)c1ccccc1Cl", "inhibition": "inconclusive: 26.9%"}
{"smiles": "COc1cc(OC)cc(C(=O)Nc2ccc3nc4n(c(=O)c3c2)CCCC4)c1", "inhibition": "inactive: -2.98%"}
{"smiles": "CCc1noc(C)c1C(=O)Nc1nc(-c2ccc(Cl)cc2Cl)cs1", "inhibition": "inconclusive: 52.3%"}
{"smiles": "C[C@H](NC(=O)C[C@@H]1C[C@H]2c3cc(NC(=O)CN(C)C)ccc3O[C@H]2[C@H](CO)O1)c1ccccc1", "inhibition": "inactive: 0.292%"}
{"smiles": "COc1ccccc1/C=C\\C(=O)NCC(=O)N/N=C(\\C)Cc1ccccc1", "inhibition": "inconclusive: 26%"}
{"smiles": "Cc1cnc(N)c2c(=O)oc3ccccc3c12", "inhibition": "inconclusive: 53.6%"}
{"smiles": "Cc1cc(Br)cc(Br)c1OCC(=O)NNC(=O)CCC(=O)NCc1ccccc1", "inhibition": "active: 27.3%"}
{"smiles": "Cc1ccc(SCc2ccc(C(=O)Nc3cccnc3)cc2)cc1", "inhibition": "inconclusive: 42.3%"}
{"smiles": "CC1CCN(S(=O)(=O)c2ccc(C(=O)Nc3nnc(-c4ccncc4)o3)cc2)CC1", "inhibition": "inactive: -4.3%"}
{"smiles": "Cc1cc(C(=O)N2CCCC(C(=O)c3ccc4ccccc4c3)C2)n(C)n1", "note": "(stereo not given)", "inhibition": "inconclusive: 34.9%"}
{"smiles": "CC(NC(=O)COc1cccc(Br)c1)C(=O)O", "note": "(stereo not given)", "inhibition": "inconclusive: 30.7%"}
{"smiles": "OCCNc1nc(-c2ccccc2)nc2ccccc12", "inhibition": "inactive: -4.39%"}
{"smiles": "C=CCNC(=S)N/N=C/c1cccc([N+](=O)[O-])c1", "inhibition": "inconclusive: 42.6%"}
{"smiles": "NC(=O)C1CCN(C(=O)c2cccc(S(=O)(=O)N3CCc4ccccc4C3)c2)CC1", "inhibition": "inconclusive: 43%"}
{"smiles": "CCc1ccc(NCc2ccc(OC)c(Cn3ccnc3)c2)cc1", "inhibition": "inactive: 2.59%"}
{"smiles": "O=C(Cc1ccccn1)NCC[C@H]1CC[C@@H](NC(=O)Nc2ccccc2)[C@H](CO)O1", "inhibition": "inactive: 0.152%"}
{"smiles": "Fc1ccc(-c2[nH]ncc2CN(CC2CCC2)CC2CCCO2)c(F)c1", "note": "(stereo not given)", "inhibition": "inconclusive: 31.9%"}
{"smiles": "Cc1[nH]n(-c2ccccc2)c(=O)c1/C=N/Nc1nncc(-c2ccccc2)n1", "inhibition": "inconclusive: 39.7%"}
{"smiles": "CC(C)CNC(=O)CSc1nc2scc(-c3ccccc3)c2c(=O)[nH]1", "inhibition": "inconclusive: 48%"}
{"smiles": "C[C@H](CO)N1C[C@H](C)[C@H](CN(C)C(=O)CCC(F)(F)F)OCCCC[C@H](C)Oc2ccc(NS(=O)(=O)c3ccc(Cl)cc3)cc2C1=O", "inhibition": "active: 80.9%"}
